Values quoted from earlier work, collected in patent publication US20140221490A1, “METHODS OF TREATING PAIN” (Hospira, Inc., priority 2011, published 2014).

Conditions: cited from earlier work; for K1:1, stability constant of 1:1 inclusion complex with HPβCD: literature reference; for Prot. bind., drug fraction bound to protein (fP): plasma; for Cmax: read-out: Cmax, maximum drug concentration in plasma, based on the drug's pharmacokinetics and administration of a normal drug dose

In the case of `CC(C)(C(=O)O)c1ccc(C(O)CCCN2CCC(C(O)(c3ccccc3)c3ccccc3)CC2)cc1` (centres unmarked) [Allegra-D (fexofenadine), fexofenadine], the “K1:1, stability constant of 1:1 inclusion complex with HPβCD” value (“K1:1, stability constant” for short) is given as 410^3 M^−1, the “Prot. bind., drug fraction bound to protein (fP)” value (shortened to “Prot. bind., drug fraction bound”) is given as 70% and the Cmax is given as 1.1 µM.

In the case of `Cc1cc(NS(=O)(=O)c2ccc(N)cc2)no1` [Bactrim (sulfamethoxazole), sulfamethoxazole], the “Prot. bind., drug fraction bound” value is listed as 70% and the Cmax is listed as 230 µM.

In the case of `CN(C)CCOC(c1ccccc1)c1ccccc1` [Diphenhydramine], the “K1:1, stability constant” value is given as 1,600^19 M^−1, the “Prot. bind., drug fraction bound” value is given as 80% and the Cmax is given as 0.62 µM.

For `NS(=O)(=O)c1cc(C(=O)O)c(NCc2ccco2)cc1Cl` [Furosemide], the “K1:1, stability constant” value is given as 2,100^27 M^−1, the “Prot. bind., drug fraction bound” value is given as 99% and the Cmax is given as 8.6 µM.

In the case of `Cc1cnc(C(=O)NCCc2ccc(S(=O)(=O)NC(=O)NC3CCCCC3)cc2)cn1` [Glipizide], the “K1:1, stability constant” value is given as 360^29 M^−1, the “Prot. bind., drug fraction bound” value is given as 99% and the Cmax is given as 1.4 µM.

For `CCN(CC)CC(=O)Nc1c(C)cccc1C` [Lidocaine], the Cmax is listed as 5.6 µM.

For `COc1ccc2cc([C@H](C)C(=O)O)ccc2c1` [Naproxen], the “K1:1, stability constant” value is listed as 2,000^36 M^−1 and the Cmax is listed as 340 µM.
